# Screen size: about 150,000 compounds; about 540 (0.36%) showed an effect of 50% or more. Some of the results follow.
# Test system: Plasmodium falciparum
# Assay: Primary screen in NF54 nanoGlo assay, in single point, at 2uM, 72h; a lower Z score goes with more inhibition
# Type: functional, Erythrocyte
# Settings: timepoint 72 hour
SMILES,% Inhibition [%],Z score
O=C(Cn1nnc2ccccc2c1=O)N1CCC(c2nc3ccccc3o2)CC1,-5,0.89
O=c1[nH]nc(C2CC=CC2)n1C[C@H]1CCCO1,-11,1.66
COc1ccc2c(c1)N(S(=O)(=O)c1ccc(C)cc1)CCCC2=O,-19,2.23
Cc1cc(C)c(C(=O)O)cc1NC(=O)c1oc(C2CC2)nc1C,25,-4.95
N#Cc1c(N2CCOCC2)ncnc1N1CCN(c2cccc(C(F)(F)F)c2)CC1,-19,1.92
C=CCn1c(C2CCCC2)nn(C)c1=O,-6,0.93
Cn1c(N2CC3CC2(C)C3)cc(=O)n(C)c1=O,-13,1.2
CC1CN(CCNc2ncccc2C(=O)O)C(C)CO1 (stereo not given),-8,0.76
COc1ccc(-c2cnn(CCO)c2)c(OC)n1,-1,0.23
CC[C@H]1CN(C(=O)c2cnn(-c3ccccc3)n2)CCO1,-4,0.62
COc1ccc(-c2cc(-c3ccc(OC)cc3)nc(-c3ccc4c(c3)NC(=O)CO4)c2)cc1,-29,3.39
O=C(NCc1nnc2ccccn12)[C@@H]1Cc2cc(Cl)ccc2N1,-5,0.63
Cc1ccc(-c2nsc(NC(=O)[C@H]3CCS(=O)(=O)C3)n2)s1,-7,1.23
Cc1nnsc1C(=O)NCC1(CO)CC1,-19,2.78
CCn1cc(S(=O)(=O)N2CC[C@H](Cc3nnc(-c4ccccc4)o3)C2)cn1,-18,2.64
C=CC[C@]1(CO)CCCN(C(=O)c2cc(CCC)nn2C)C1,-6,1.09
Cc1nn(C)c(Oc2cccc(F)c2)c1NC(=O)c1ccccn1,-2,0.28
Cc1cc(Cl)ccc1OCCN1CCN(C(=O)c2cncnc2C)CC1,-5,0.76
C(=Cc1csc(-c2ccccn2)n1)c1ccncn1,9,-0.98
CC(C)n1nccc1NC(=O)C[C@@H]1OCCc2ccsc21,0,0.05
c1csc(N2CCN(c3nnc(C4CC4)o3)CC2)n1,-5,0.73
CCCc1nc(CN(C)Cc2ccc(Cl)o2)no1,-8,1.67
O=C(Nc1cnc(C2CC2)nc1)N1CCN(c2ccncc2Cl)CC1,-8,0.94
CCCCN1CCN(Cc2cc(C)cc(C)c2)[C@H]2CS(=O)(=O)C[C@H]21,-23,2.92
CC(C)(C)c1ccc(S(=O)(=O)N2C=CC(C(F)(F)Cl)=NCC2)cc1,-4,0.49
CCOc1ccc(-c2noc(CN3N=NC4C(=O)N(c5ccc(C)c(F)c5)C(=O)C43)n2)cc1OC (stereo not given),0,0
O=C(NCc1nnc(C(=O)Nc2cccc(F)c2)s1)c1ccc(F)cc1,-3,0.52
Cc1cc(C)nc(NCc2nocc2C)n1,4,-0.71

SMILES,% Inhibition [%],Z score
O=C(NC1CCOCC1)c1nn(-c2ccc(Cl)cc2Cl)c2c1CCC2,-14,2.46
CC(C)(C)c1nc(N[C@H]2CC[C@@H](CO)C2)no1,-7,0.76
CC1(C)CN(C(=O)NCc2nnc3ccccn23)CCN1Cc1ccccc1,-9,1.02
O=C(c1ccccc1)N1CCN([C@H]2CC(=O)N(c3ccccc3)C2=O)CC1,-9,1.42
O=C1CN(c2ncccc2NC(=O)c2cccc(F)c2F)CCN1,-4,0.51
O=C(c1cccc2cc[nH]c12)N1CCCO1,-5,0.78
FC(F)(F)c1nc(-c2cc(NCc3ccncc3)nc3[nH]ccc23)n[nH]1,-7,0.87
Cc1ccc(Cn2c(=O)c3c(nc(N4CCNCC4)n3C)n(C)c2=O)cc1,0,-0.07
[O-][S+]1CCN(Cc2cc(F)cc(C(F)(F)F)c2)CC1,-8,1.24
CC(=O)N1CCC[C@@](NCc2nc3ccccc3[nH]2)(c2nnnn2CCC(C)C)C1,-12,1.54
COc1ccc(-c2ccc(CNC(=O)c3nc(=O)[nH][nH]3)s2)cc1,-17,2.1
COCc1noc(C[C@H]2CN(C(=O)Nc3cc(C)ccc3OC)CCO2)n1,-3,0.55
Cn1cc(C#N)cc1C(=O)N1CCOC[C@@H]1Cc1ccccc1,-7,0.64
CCN1CCC(N(C)S(=O)(=O)c2cncc(Br)c2)C(C)C1 (stereo not given),-5,0.93
CC[C@@H](CS(=O)(=O)Nc1cc(-c2nnn[nH]2)ccc1F)OC,4,-0.56
CC1CCC(OC2CCN(C(=O)c3nccnc3N)CC2)CC1 (stereo not given),1,-0.13
COc1ccc(-c2c[nH]c(C(=O)N3CCCCC3)c2)c(C)c1,-8,1.36
Cc1cc(N2CCOCC2)ccc1NC(=O)Cc1csc(NC(=O)c2ccccc2)n1,-5,0.93
COc1ccc(C2c3c([nH][nH]c3=O)CC(C)(O)C2C(=O)Nc2ccccc2C)cc1 (stereo not given),-3,0.3
CC(C)(C)c1cc[n+]2c(c1)ncc1sc(=O)[n-]c12,-4,0.57
CNC(=O)Cn1c(Cc2ccccc2)nn(-c2ccccc2OC)c1=O,7,-0.98
Cc1csc(C(C)(C)NCc2nnc(C(C)C)o2)n1,-13,1.71
O=S(=O)(CC1CC(F)(F)C1)N1CCOC[C@H]1c1ncnn1-c1ccccc1,-4,0.85
O=C(c1c[nH]c(=O)c(Br)c1)N1CCOC2CCCCC21 (stereo not given),-9,1.17
COc1cc([C@H]2CC(=O)Nc3nc(N)sc32)ccc1OCc1cccc(F)c1,-16,2.03
CC(C)CNC(=O)N1CCc2c(c(-c3nc(C4CC4)no3)nn2C)C1,-6,1.04
Cc1ccc2oc(N3CC[C@H](N4CCN(C)CC4)[C@H](CCCO)C3)nc2c1,1,-0.24

# Source: ChEMBL document CHEMBL4888484, “Replenishing the malaria drug discovery pipeline: Screening and hit evaluation of the MMV Hit Generation Library 1 (HGL1) against asexual blood stage Plasmodium falciparum ,using a nano luciferase reporter read-out” (2022)
